# Target: isolated recombinant JAK1 kinase domain (Homo sapiens (Human), UniProt P23458)
# Settings: read-out: JAK1 Ki; isolated recombinant JAK1 kinase domain, 25 μM ATP
row,SMILES,Ki
1,"CCOC(=O)N1CC=C(c2cccn3nc(Nc4ccc(C(=O)N(C)Cc5ccncc5)cc4)nc23)CC1 [Example 2-361, ethyl 4-[2-[4-[methyl(4-pyridylmethyl)carbamoyl]anilino]-[1,2,4]triazolo[1,5-a]pyridin-8-yl]-3,6-dihydro-2H-pyridine-1-carboxylate]",1.7 nM
2,"CCOC(=O)N1CC=C(c2cccn3nc(Nc4ccc(C(=O)NCCC5CCCN5)cc4)nc23)CC1 (stereo not drawn) [Example 2-362, ethyl 4-[2-[4-(2-pyrrolidin-2-ylethylcarbamoyl)anilino]-[1,2,4]triazolo[1,5-a]pyridin-8-yl]-3,6-dihydro-2H-pyridine-1-carboxylate]",1.75 nM
3,"CCOC(=O)N1CC=C(c2cccn3nc(Nc4ccc(C(=O)N5CCN(CC6CCCO6)CC5)cc4)nc23)CC1 (stereo not drawn) [Example 2-363, ethyl 4-[2-[4-[4-(tetrahydrofuran-2-ylmethyl)piperazine-1-carbonyl]anilino]-[1,2,4]triazolo[1,5-a]pyridin-8-yl]-3,6-dihydro-2H-pyridine-1-carboxylate]",2.67 nM
4,"CCOC(=O)N1CC=C(c2cccn3nc(Nc4ccc(C(=O)N(CCOC)C5CCN(C)CC5)cc4)nc23)CC1 [Example 2-364, ethyl 4-[2-[4-[2-methoxyethyl-(1-methyl-4-piperidyl)carbamoyl]anilino]-[1,2,4]triazolo[1,5-a]pyridin-8-yl]-3,6-dihydro-2H-pyridine-1-carboxylate]",5.69 nM
5,"CCOC(=O)N1CC=C(c2cccn3nc(Nc4ccc(C(=O)N(C)C5CCN(C(C)C)CC5)cc4)nc23)CC1 [Example 2-365, ethyl 4-[2-[4-[(1-isopropyl-4-piperidyl)-methyl-carbamoyl]anilino]-[1,2,4]triazolo[1,5-a]pyridin-8-yl]-3,6-dihydro-2H-pyridine-1-carboxylate]",4.34 nM
6,"CCOC(=O)N1CC=C(c2cccn3nc(Nc4ccc(C(=O)N5CC6CC5CN(C)C6)cc4)nc23)CC1 (stereo not drawn) [Example 2-366, ethyl 4-[2-[4-(3-methyl-3,6-diazabicyclo[3.2.1]octane-6-carbonyl)anilino]-[1,2,4]triazolo[1,5-a]pyridin-8-yl]-3,6-dihydro-2H-pyridine-1-carboxylate]",3.66 nM
7,"CCOC(=O)N1CC=C(c2cccn3nc(Nc4ccc(C(=O)N5CCN(C6CC6)CC5)cc4)nc23)CC1 [Example 2-367, ethyl 4-[2-[4-(4-cyclopropylpiperazine-1-carbonyl)anilino]-[1,2,4]triazolo[1,5-a]pyridin-8-yl]-3,6-dihydro-2H-pyridine-1-carboxylate]",4.62 nM
8,"CCOC(=O)N1CC=C(c2cccn3nc(Nc4ccc(C(=O)N5CCN(C6CCC6)CC5)cc4)nc23)CC1 [Example 2-368, ethyl 4-[2-[4-(4-cyclobutylpiperazine-1-carbonyl)anilino]-[1,2,4]triazolo[1,5-a]pyridin-8-yl]-3,6-dihydro-2H-pyridine-1-carboxylate]",3.57 nM
9,"CCOC(=O)N1CC=C(c2cccn3nc(Nc4ccc(C(=O)N5CCCC6(CCCN(C)C6)C5)cc4)nc23)CC1 (stereo not drawn) [Example 2-369, ethyl 4-[2-[4-(8-methyl-2,8-diazaspiro[5.5]undecane-2-carbonyl)anilino]-[1,2,4]triazolo[1,5-a]pyridin-8-yl]-3,6-dihydro-2H-pyridine-1-carboxylate]",2.62 nM
10,"CCOC(=O)N1CC=C(c2cccn3nc(Nc4ccc(C(=O)N5C[C@@H]6CCN[C@@H]6C5)cc4)nc23)CC1 [Example 2-371, ethyl 4-[2-[4-[(3aS,6aS)-2,3,3a,4,6,6a-hexahydro-1H-pyrrolo[2,3-c]pyrrole-5-carbonyl]anilino]-[1,2,4]triazolo[1,5-a]pyridin-8-yl]-3,6-dihydro-2H-pyridine-1-carboxylate]",2.68 nM
11,"CCOC(=O)N1CC=C(c2cccn3nc(Nc4ccc(C(=O)N5CC6(CCNC6)C5)cc4)nc23)CC1 [Example 2-372, ethyl 4-[2-[4-(2,7-diazaspiro[3.4]octane-2-carbonyl)anilino]-[1,2,4]triazolo[1,5-a]pyridin-8-yl]-3,6-dihydro-2H-pyridine-1-carboxylate]",1.37 nM
12,"CCOC(=O)N1CC=C(c2cccn3nc(Nc4ccc(C(=O)N5CCCC56CCNCC6)cc4)nc23)CC1 [Example 2-373, ethyl 4-[2-[4-(1,8-diazaspiro[4.5]decane-1-carbonyl)anilino]-[1,2,4]triazolo[1,5-a]pyridin-8-yl]-3,6-dihydro-2H-pyridine-1-carboxylate]",2.76 nM
13,"CCOC(=O)N1CC=C(c2cccn3nc(Nc4ccc(C(=O)N(C)CCN)cc4)nc23)CC1 [Example 2-374, ethyl 4-[2-[4-[2-aminoethyl(methyl)carbamoyl]anilino]-[1,2,4]triazolo[1,5-a]pyridin-8-yl]-3,6-dihydro-2H-pyridine-1-carboxylate]",2.52 nM
14,"CCOC(=O)N1CC=C(c2cccn3nc(Nc4ccc(C(=O)N5CCC6(CCCCN6)C5)cc4)nc23)CC1 (stereo not drawn) [Example 2-376, ethyl 4-[2-[4-(2,6-diazaspiro[4.5]decane-2-carbonyl)anilino]-[1,2,4]triazolo[1,5-a]pyridin-8-yl]-3,6-dihydro-2H-pyridine-1-carboxylate]",2.54 nM
15,"O=C(CCC(F)(F)F)N1CC=C(c2cccn3nc(Nc4ccc(C(=O)N5CCC6(CCCN6)C5)cc4)nc23)CC1 (stereo not drawn) [Example 2-377, 1-[4-[2-[4-(1,7-diazaspiro[4.4]nonane-7-carbonyl)anilino]-[1,2,4]triazolo[1,5-a]pyridin-8-yl]-3,6-dihydro-2H-pyridin-1-yl]-4,4,4-trifluoro-butan-1-one]",1.1 nM
16,"O=C(CCC(F)(F)F)N1CC=C(c2cccn3nc(Nc4ccc(C(=O)N5CCC6(CCCCN6)C5)cc4)nc23)CC1 (stereo not drawn) [Example 2-378, 1-[4-[2-[4-(2,6-diazaspiro[4.5]decane-2-carbonyl)anilino]-[1,2,4]triazolo[1,5-a]pyridin-8-yl]-3,6-dihydro-2H-pyridin-1-yl]-4,4,4-trifluoro-butan-1-one]",1.53 nM
17,"O=C(CCC(F)(F)F)N1CC=C(c2cccn3nc(Nc4ccc(C(=O)N5CCC6(CNC6)C5)cc4)nc23)CC1 [Example 2-379, 1-[4-[2-[4-(2,6-diazaspiro[3,4]octane-6-carbonyl)anilino]-[1,2,4]triazolo[1,5-a]pyridin-8-yl]-3,6-dihydro-2H-pyridin-1-yl]-4,4,4-trifluoro-butan-1-one]",1.46 nM
18,"O=C(CCC(F)(F)F)N1CC=C(c2cccn3nc(Nc4ccc(C(=O)N5CCCC6(CCCCN6)C5)cc4)nc23)CC1 (stereo not drawn) [Example 2-383, 1-[4-[2-[4-(1,8-diazaspiro[5.5]undecane-8-carbonyl)anilino]-[1,2,4]triazolo[1,5-a]pyridin-8-yl]-3,6-dihydro-2H-pyridin-1-yl]-4,4,4-trifluoro-butan-1-one]",1.55 nM
19,"O=C(CCC(F)(F)F)N1CC=C(c2cccn3nc(Nc4ccc(C(=O)N5CCCC6(CCCN6)CC5)cc4)nc23)CC1 (stereo not drawn) [Example 2-384, 1-[4-[2-[4-(1,9-diazaspiro[4.6]undecane-9-carbonyl)anilino]-[1,2,4]triazolo[1,5-a]pyridin-8-yl]-3,6-dihydro-2H-pyridin-1-yl]-4,4,4-trifluoro-butan-1-one]",1.73 nM
20,"O=C(NCC1CCCCN1)c1ccc(Nc2nc3c(C4=CCN(C(=O)CCC(F)(F)F)CC4)cccn3n2)cc1 (stereo not drawn) [Example 2-385, N-(2-piperidylmethyl)-4-[[8-[1-(4,4,4-trifluorobutanoyl)-3,6-dihydro-2H-pyridin-4-yl]-[1,2,4]triazolo[1,5-a]pyridin-2-yl]amino]benzamide]",1.06 nM
21,"O=C(CCC(F)(F)F)N1CC=C(c2cccn3nc(Nc4ccc(C(=O)N5CCC6CNCC65)cc4)nc23)CC1 (stereo not drawn) [Example 2-386, 1-[4-[2-[4-(3,3a,4,5,6,6a-hexahydro-2H-pyrrolo[2,3-c]pyrrole-1-carbonyl)anilino]-[1,2,4]triazolo[1,5-a]pyridin-8-yl]-3,6-dihydro-2H-pyridin-1-yl]-4,4,4-trifluoro-butan-1-one]",1.21 nM
22,"O=C(CCC(F)(F)F)N1CC=C(c2cccn3nc(Nc4ccc(C(=O)N5C[C@@H]6CCN[C@@H]6C5)cc4)nc23)CC1 [Example 2-387, 1-[4-[2-[4-[(3aS,6aS)-2,3,3a,4,6,6a-hexahydro-1H-pyrrolo[2,3-c]pyrrole-5-carbonyl]anilino]-[1,2,4]triazolo[1,5-a]pyridin-8-yl]-3,6-dihydro-2H-pyridin-1-yl]-4,4,4-trifluoro-butan-1-one]",0.88 nM
23,"O=C(NCC1CC12CCNCC2)c1ccc(Nc2nc3c(C4=CCN(C(=O)CCC(F)(F)F)CC4)cccn3n2)cc1 (stereo not drawn) [Example 2-388, N-(6-azaspiro[2.5]octan-2-ylmethyl)-4-[[8-[1-(4,4,4-trifluorobutanoyl)-3,6-dihydro-2H-pyridin-4-yl]-[1,2,4]triazolo[1,5-a]pyridin-2-yl]amino]benzamide]",1.14 nM
24,"CN1CCCC(CN(C)C(=O)c2ccc(Nc3nc4c(C5=CCN(C(=O)CCC(F)(F)F)CC5)cccn4n3)cc2)C1 (stereo not drawn) [Example 2-389, N-methyl-N-[(1-methyl-3-piperidyl)methyl]-4-[[8-[1-(4,4,4-trifluorobutanoyl)-3,6-dihydro-2H-pyridin-4-yl]-[1,2,4]triazolo[1,5-a]pyridin-2-yl]amino]benzamide]",1.34 nM
25,"O=C(CCC(F)(F)F)N1CC=C(c2cccn3nc(Nc4ccc(C(=O)N5CCCC(O)(CN6CCCC6)CC5)cc4)nc23)CC1 (stereo not drawn) [Example 2-390, 4,4,4-trifluoro-1-[4-[2-[4-[4-hydroxy-4-(pyrrolidin-1-ylmethyl)azepane-1-carbonyl]anilino]-[1,2,4]triazolo[1,5-a]pyridin-8-yl]-3,6-dihydro-2H-pyridin-1-yl]butan-1-one]",2.02 nM
26,"CN1CCC2(CC1)CN(C(=O)c1ccc(Nc3nc4c(C5=CCN(C(=O)CCC(F)(F)F)CC5)cccn4n3)cc1)C2 [Example 2-391, 4,4,4-trifluoro-1-[4-[2-[4-(7-methyl-2,7-diazaspiro[3.5]nonane-2-carbonyl)anilino]-[1,2,4]triazolo[1,5-a]pyridin-8-yl]-3,6-dihydro-2H-pyridin-1-yl]butan-1-one]",0.71 nM
27,"O=C(CCC(F)(F)F)N1CC=C(c2cccn3nc(Nc4ccc(C(=O)N5CC6(CNC6)C5)cc4)nc23)CC1 [Example 2-392, 1-[4-[2-[4-(2,6-diazaspiro[3.3]heptane-2-carbonyl)anilino]-[1,2,4]triazolo[1,5-a]pyridin-8-yl]-3,6-dihydro-2H-pyridin-1-yl]-4,4,4-trifluoro-butan-1-one]",1.18 nM
